Results on 1 molecule are retold here after patent US20250195614A1 (IMMUNITYBIO, published 2025).

The assay addresses TGF-β1 (UniProt P01137 partial chain). The assay is described as follows: cell-based or functional assay.

Sequence of TGF-β1 (P01137 279-390 limits assumed): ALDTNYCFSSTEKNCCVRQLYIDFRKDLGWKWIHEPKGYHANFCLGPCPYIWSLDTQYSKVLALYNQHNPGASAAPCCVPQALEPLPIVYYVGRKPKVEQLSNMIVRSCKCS

B1: TGFRt15*-TGFRs (soluble TGFR/IL15RαSu-TGFR/TF/IL-15D8N protein complex) (other)
chain 1: IPPHVQKSVNNDMIVTDNNGAVKFPQLCKFCDVRFSTCDNQKSCMSNCSITSICEKPQEVCVAVWRKNDENITLETVCHDPKLPYHDFILEDAASPKCIMKEKKKPGETFFMCSCSSDECNDNIIFSEEYNTSNPDGGGGSGGGGSGGGGSIPPHVQKSVNNDMIVTDNNGAVKFPQLCKFCDVRFSTCDNQKSCMSNCSITSICEKPQEVCVAVWRKNDENITLETVCHDPKLPYHDFILEDAASPKCIMKEKKKPGETFFMCSCSSDECNDNIIFSEEYNTSNPDSGTTNTVAAYNLTWKSTNFKTILEWEPKPVNQVYTVQISTKSGDWKSKCFYTTDTECDLTDEIVKDVKQTYLARVFSYPAGNVESTGSAGEPLYENSPEFTPYLETNLGQPTIQSFEQVGTKVNVTVEDERTLVRRNNTFLSLRDVFGKDLIYTLYYWKSSSSGKKTAKTNTNEFLIDVDKGENYCFSVQAVIPSRTVNRKSTDSPVECMGQEKGEFRE[letters of about 120 residues with changes left out]
chain 2: IPPHVQKSVNNDMIVTDNNGAVKFPQLCKFCDVRFSTCDNQKSCMSNCSITSICEKPQEVCVAVWRKNDENITLETVCHDPKLPYHDFILEDAASPKCIMKEKKKPGETFFMCSCSSDECNDNIIFSEEYNTSNPDGGGGSGGGGSGGGGSIPPHVQKSVNNDMIVTDNNGAVKFPQLCKFCDVRFSTCDNQKSCMSNCSITSICEKPQEVCVAVWRKNDENITLETVCHDPKLPYHDFILEDAASPKCIMKEKKKPGETFFMCSCSSDECNDNIIFSEEYNTSNPDITCPPPMSVEHADIWVKSYSLYSRERYICNSGFKRKAGTSSLTECVLNKATNVAHWTTPSLKCIR
As to B1, the “IC50, TGF-β1 blocking activity in HEK-Blue TGF-β cells (OD620)” value was 0.0452 nM.
